# Some of the results follow.
# B1: HML-Native (Hypnea musciformis), P84871 (protein)
# chain: QKFCTLDIAPVCCQIVIGGGMYTAGNACMCEGFVSGVGRCENPKECPCTREAQIPSCCSSRWGLVSVTGKCACDCLGGTVAFPEPCPSPY
# Legend:
# Test in all cases: glycan array binding signal (z-score within array); higher = stronger binding
# Conditions in all cases: glycan notation: IUPAC condensed, linker removed
# [1] = target: Gal(b1-4)GlcNAc(b1-2)Man(a1-6)[GlcNAc(b1-2)Man(a1-3)]Man(b1-4)GlcNAc(b1-4)GlcNAc
# Method in brief: (§1)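 Glycan array data were curated from 3228 arrays in the Consortium for Functional Glycomics database and kept only where the protein sequence was available. Glycan names were converted to IUPAC-condensed notation, and columns mapping to the same glycan were averaged. The binding signal is a within-array Z-score, averaged across arrays of the same protein sequence at different concentrations or buffers and across linkers. Negative Z-scores can be read as non-binding.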
# [2] = target: Gal(b1-4)GlcNAc(b1-2)Man(a1-6)[Man(a1-3)]Man(b1-4)GlcNAc(b1-4)GlcNAc
# Method in brief: as §1
# [3] = target: Gal(b1-4)GlcNAc(b1-2)[Gal(b1-4)GlcNAc(b1-4)]Man(a1-3)[Gal(b1-4)GlcNAc(b1-2)Man(a1-6)]Man(b1-4)GlcNAc(b1-4)GlcNAc
# Method in brief: as §1
# [4] = target: Gal(b1-4)GlcNAc(b1-2)[Gal(b1-4)GlcNAc(b1-4)]Man(a1-3)[Gal(b1-4)GlcNAc(b1-2)[Gal(b1-4)GlcNAc(b1-6)]Man(a1-6)]Man(b1-4)GlcNAc(b1-4)GlcNAc
# Method in brief: as §1
# [5] = target: Gal(b1-4)GlcNAc(b1-2)[Gal(b1-4)GlcNAc(b1-4)]Man(a1-3)[GlcNAc(b1-4)][Gal(b1-4)GlcNAc(b1-2)Man(a1-6)]Man(b1-4)GlcNAc(b1-4)GlcNAc
# Method in brief: as §1
# [6] = target: Gal(b1-4)GlcNAc(b1-2)[Gal(b1-4)GlcNAc(b1-4)]Man(a1-3)[GlcNAc(b1-4)][Gal(b1-4)GlcNAc(b1-2)[Gal(b1-4)GlcNAc(b1-6)]Man(a1-6)]Man(b1-4)GlcNAc(b1-4)GlcNAc
# Method in brief: as §1
# [7] = target: Gal(b1-4)GlcNAc(b1-2)[Gal(b1-4)GlcNAc(b1-6)]Man(a1-6)[Gal(b1-4)GlcNAc(b1-2)Man(a1-3)]Man(b1-4)GlcNAc(b1-4)GlcNAc
# Method in brief: as §1
# [8] = target: Gal(b1-4)GlcNAc(b1-2)[Gal(b1-4)GlcNAc(b1-6)]Man(a1-6)[Gal(b1-4)GlcNAc(b1-2)Man(a1-3)]Man(b1-4)GlcNAc(b1-4)[Fuc(a1-6)]GlcNAc
# Method in brief: as §1
# [9] = target: Gal(b1-4)GlcNAc(b1-2)[Gal(b1-4)GlcNAc(b1-6)]Man(a1-6)[GlcNAc(b1-4)][Gal(b1-4)GlcNAc(b1-2)Man(a1-3)]Man(b1-4)GlcNAc(b1-4)GlcNAc
# Method in brief: as §1
# [10] = target: Gal(b1-4)GlcNAc(b1-2)[Gal(b1-4)GlcNAc(b1-6)]Man(a1-6)[GlcNAc(b1-4)][Gal(b1-4)GlcNAc(b1-2)[Gal(b1-4)GlcNAc(b1-4)]Man(a1-3)]Man(b1-4)GlcNAc(b1-4)[Fuc(a1-6)]GlcNAc
# Method in brief: as §1
# [11] = target: Gal(b1-4)GlcNAc(b1-3)Gal(b1-3)GalNAc
# Method in brief: as §1
# [12] = target: Gal(b1-4)GlcNAc(b1-3)Gal(b1-3)GlcNAc
# Method in brief: as §1
# [13] = target: Gal(b1-4)GlcNAc(b1-3)Gal(b1-4)Glc
# Method in brief: as §1
# [14] = target: Gal(b1-4)GlcNAc(b1-3)Gal(b1-4)GlcNAc
# Method in brief: as §1
# [15] = target: Gal(b1-4)GlcNAc(b1-3)Gal(b1-4)GlcNAc(b1-2)Man(a1-3)[Gal(b1-4)GlcNAc(b1-3)Gal(b1-4)GlcNAc(b1-2)Man(a1-6)]Man(b1-4)GlcNAc(b1-4)GlcNAc
# Method in brief: as §1
# [16] = target: Gal(b1-4)GlcNAc(b1-3)Gal(b1-4)GlcNAc(b1-2)Man(a1-3)[Gal(b1-4)GlcNAc(b1-3)Gal(b1-4)GlcNAc(b1-2)Man(a1-6)]Man(b1-4)GlcNAc(b1-4)[Fuc(a1-6)]GlcNAc
# Method in brief: as §1
# [17] = target: Gal(b1-4)GlcNAc(b1-3)Gal(b1-4)GlcNAc(b1-2)[Gal(b1-4)GlcNAc(b1-3)Gal(b1-4)GlcNAc(b1-6)]Man(a1-6)[Gal(b1-4)GlcNAc(b1-3)Gal(b1-4)GlcNAc(b1-2)Man(a1-3)]Man(b1-4)GlcNAc(b1-4)GlcNAc
# Method in brief: as §1
# [18] = target: Gal(b1-4)GlcNAc(b1-3)Gal(b1-4)GlcNAc(b1-2)[Gal(b1-4)GlcNAc(b1-3)Gal(b1-4)GlcNAc(b1-6)]Man(a1-6)[Gal(b1-4)GlcNAc(b1-3)Gal(b1-4)GlcNAc(b1-2)Man(a1-3)]Man(b1-4)GlcNAc(b1-4)[Fuc(a1-6)]GlcNAc
# Method in brief: as §1
# [19] = target: Gal(b1-4)GlcNAc(b1-3)Gal(b1-4)GlcNAc(b1-3)Gal(b1-4)GlcNAc
# Method in brief: as §1
# [20] = target: Gal(b1-4)GlcNAc(b1-3)Gal(b1-4)GlcNAc(b1-3)Gal(b1-4)GlcNAc(b1-2)Man(a1-3)[Gal(b1-4)GlcNAc(b1-3)Gal(b1-4)GlcNAc(b1-3)Gal(b1-4)GlcNAc(b1-2)Man(a1-6)]Man(b1-4)GlcNAc(b1-4)GlcNAc
# Method in brief: as §1
# [21] = target: Gal(b1-4)GlcNAc(b1-3)Gal(b1-4)GlcNAc(b1-3)Gal(b1-4)GlcNAc(b1-2)Man(a1-3)[Gal(b1-4)GlcNAc(b1-3)Gal(b1-4)GlcNAc(b1-3)Gal(b1-4)GlcNAc(b1-2)Man(a1-6)]Man(b1-4)GlcNAc(b1-4)[Fuc(a1-6)]GlcNAc
# Method in brief: as §1
# [22] = target: Gal(b1-4)GlcNAc(b1-3)Gal(b1-4)GlcNAc(b1-3)Gal(b1-4)GlcNAc(b1-2)[Gal(b1-4)GlcNAc(b1-3)Gal(b1-4)GlcNAc(b1-3)Gal(b1-4)GlcNAc(b1-6)]Man(a1-6)[Gal(b1-4)GlcNAc(b1-3)Gal(b1-4)GlcNAc(b1-3)Gal(b1-4)GlcNAc(b1-2)Man(a1-3)]Man(b1-4)GlcNAc(b1-4)[Fuc(a1-6)]GlcNAc
# Method in brief: as §1
binder,measurement,setting,value
B1,glycan array binding signal (z-score),[1],-0.243
same,glycan array binding signal (z-score),[2],-0.238
same,glycan array binding signal (z-score),[3],-0.12
same,glycan array binding signal (z-score),[4],-0.155
same,glycan array binding signal (z-score),[5],-0.209
same,glycan array binding signal (z-score),[6],-0.193
same,glycan array binding signal (z-score),[7],-0.081
same,glycan array binding signal (z-score),[8],4.48
same,glycan array binding signal (z-score),[9],-0.262
same,glycan array binding signal (z-score),[10],-0.041
same,glycan array binding signal (z-score),[11],-0.238
same,glycan array binding signal (z-score),[12],-0.365
same,glycan array binding signal (z-score),[13],-0.207
same,glycan array binding signal (z-score),[14],-0.286
same,glycan array binding signal (z-score),[15],-0.152
same,glycan array binding signal (z-score),[16],5.52
same,glycan array binding signal (z-score),[17],0.072
same,glycan array binding signal (z-score),[18],2.88
same,glycan array binding signal (z-score),[19],-0.179
same,glycan array binding signal (z-score),[20],-0.215
same,glycan array binding signal (z-score),[21],4.93
same,glycan array binding signal (z-score),[22],2.23
